Laboratory results from publication PMC13083723 (Patterns, 2026).
Out of some 5,400 compounds screened, about 190 (3.5%) showed an effect of 50% or more. Some of the results follow.

test system: Vero-E6; experiment: primary screen, phospholipidosis by LipidTOX staining; higher = more effect of the substance; settings: 10 µM
How it was run: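 Single-concentration screen at 10 μM, with DMSO 0.1 v/v % and amiodarone 10 μM as controls. Read-out is LipidTOX Red phospholipid staining, which tolerates aldehyde fixation, in Vero-E6 cells.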

Row | SMILES | result_ITMP [%]
1 | CCCS(=O)c1ccc2nc(NC(=O)OC)[nH]c2c1 (centres unmarked) | 0.62
2 | CC(C)(Sc1ccc(CCN(CCCCC2CCCCC2)C(=O)NC2CCCCC2)cc1)C(=O)O | -4.42
3 | CC(CN(C)C)CN1c2ccccc2Sc2ccc(C#N)cc21 (centres unmarked) | 42.4
4 | CSc1ccc2c(c1)N(CCC1CCCCN1C)c1ccccc1S2 (centres unmarked) | 68.1
5 | CCCC(CCC)C(=O)OC1C[C@H]2CC[C@@H](C1)[N+]2(C)C (some centres unmarked) | -4.25
6 | Cc1cc(-c2ccccc2)nnc1NCCN1CCOCC1 | -1.84
7 | CCN(c1cc(C#CCN2CCOCC2)cc(C(=O)NCc2c(C)cc(C)[nH]c2=O)c1C)[C@H]1CC[C@H](N(C)CCOC)CC1 | -1.51
8 | CC(C)(N)C(=O)N[C@H](COCc1ccccc1)C(=O)N1CCC2(CC1)CN(S(C)(=O)=O)c1ccccc12 | 0.41
9 | OC[C@@H](O)C(O[C@@H]1O[C@H](CO)[C@H](O)[C@H](O)[C@H]1O)[C@H](O)[C@@H](O)CO (some centres unmarked) | -8.28
10 | CC[N+](CC)(CC)CC(=O)Nc1c(C)cccc1C | -7.72
11 | Cc1ccc([N+](=O)[O-])cc1S(=O)(=O)N(C)/N=C/c1cnc2ccc(Br)cn12 | -3.07
12 | COc1cc(-c2ccc(=O)[nH]n2)ccc1OC(F)F | -2.3
13 | Cc1noc(C)c1-c1ccc(-c2cc(C(N)=O)c(NC(N)=O)s2)c(O[C@H]2CCNC2)c1 | -2.49
14 | CC(C)(Sc1ccncc1-c1ccc(C#N)c2ccccc12)C(=O)O | -2.29
15 | CCCCC1(COC(=O)CCC(=O)O)C(=O)N(c2ccccc2)N(c2ccccc2)C1=O | -3.55
16 | COc1cc(NC(C)CCCN)c2ncccc2c1 (centres unmarked) | 1.37
17 | Cc1[nH]cnc1-c1ccc(Cl)cc1 | 1.74
18 | O=c1[nH]c(=O)n([C@H]2C[C@H](O)[C@@H](CO)O2)cc1Br | 0.31
19 | CC/C=C\C/C=C\C/C=C\C/C=C\C/C=C\C/C=C\CCC(=O)OCC | 4.73
20 | Nc1cccc(CNC(=O)c2ccc(Oc3ccc(OCc4cccc(F)c4)cc3)nc2)c1 | -1.49
21 | NS(=O)(=O)c1cc(-c2nnn[nH]2)c(NCc2cccs2)cc1Cl | -2.54
22 | CC(=O)CC/C=C(\C)CC/C=C(\C)CC/C=C(\C)CCC=C(C)C | -7.33
23 | Nc1ccc([As](=O)(O)O)cc1 | 9.57
24 | CCCCNc1c(C(=O)OCC)c(C)nc2c1cnn2CC | 6.87
25 | c1ccc(COCCCc2cnc[nH]2)cc1 | -5.1
26 | CNCc1cc(-c2ccccc2F)n(S(=O)(=O)c2cccnc2)c1 | 8.33
